Test results published in PubChem BioAssay AID2060353 (Molecular Pharmacology Branch, DTP, NCI, 2025).
The source holds more than one record for some entries. This list holds those alone. An entry can have further records. Values that stand side by side repeat one measurement (runs, samples, wells, individuals or studies).

Test system: 521955-158-R2-J5-PDC spheroids with stroma, growth inhibition
Test: Anticancer human tumor 521955-158-R2-J5-PDC patient-derived pancreatic carcinoma cell line growth inhibition [TAK]
Conditions: compound alone 9.49 µM; stronger effect = lower value
Description: Combinatorial screen of targeted agents with TAK-243 and ipatasertib in multi-cell type tumor spheroids
A high-throughput screen of multi-cell type tumor spheroids was designed to identify active combinations of targeted small molecules and TAK-243 or ipatasertib. Complex spheroids include a stromal component modeled by human endothelial cells (HUVEC) and fibroblasts modeled by human mesenchymal stem cells (MSCs). The concentration ranges selected for each drug and investigational agent were based upon clinically achievable concentrations if the clinical Cmax of the agent was known.
Compounds. […] If the clinical Cmax for an agent had not been determined, the highest concentration tested was 10 microM.
NCI60 Cell Culture. […] The optimal seeding densities for each of the cell lines at each time point assessed were determined prior to performing the concentration response studies. […]
For the pre-screen, cell seeding densities were determined from a titration spanning the range from 5,000 to 313 cells per well. […]
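Also: spheroids exposed to drugs for seven days before readout; 100% = DMSO vehicle control viability.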

CC(C)NCC(C(=O)N1CCN(c2ncnc3c2C(C)CC3O)CC1)c1ccc(Cl)cc1 (stereo unspecified) was tested, and the viability, T/C was 86.3, 93.2, 96.1, 99.9, 124, 99.3, 75.4, 82.8, 101, 96.8%.
